# Test results taken from ChEMBL document CHEMBL4888484, “Replenishing the malaria drug discovery pipeline: Screening and hit evaluation of the MMV Hit Generation Library 1 (HGL1) against asexual blood stage Plasmodium falciparum ,using a nano luciferase reporter read-out” (2022).
# The campaign covered roughly 150,000 compounds. About 540 (0.36%) showed an effect of 50% or more. The list shows a part of the results.
# Test system: Plasmodium falciparum
# Assay: Primary screen in NF54 nanoGlo assay, in single point, at 2uM, 72h; a lower Z score goes with more inhibition
# Format: functional, Erythrocyte
# Conditions: timepoint 72 hour
Structure (SMILES),% Inhibition [%],Z score
C[C@H]1CN(S(=O)(=O)N2CCCCCCC2)CCO1,-14,1.96
CC1CCC(NC(=O)NCC2CS(=O)(=O)c3ccccc32)CS1(=O)=O (stereo not drawn),-6,1.03
CCOC(=O)CCC(=O)Nc1cc2c(cc1F)N(C)S(=O)(=O)N2C,13,-1.68
CCc1ccc(CNC(=O)c2cn3c(n2)C(=O)N(CCOC)CC3)cc1,-14,1.85
COc1ccc(Nc2nc(N3CCOCC3)nc3ccccc23)c(OC)c1,6,-0.79
COc1ccc2nc(-n3nc(C)cc3NC(=O)c3ccno3)sc2c1,-14,2.11
Cn1nc(C(=O)N2CCNC(=O)[C@@H]2c2cccs2)c2c1CCCC2,-11,1.44
O=C1CN(c2ccc(CNC(=O)C3CC4CCC3C4)cc2)CCN1 (stereo not drawn),0,0.04
O=C(Nc1cc(S(=O)(=O)N2CCCC2)ccc1O)c1cncc(Br)c1,27,-3.46
COc1ccc([C@@H](C)CN2CC(C3CS(=O)(=O)C3)C2)cc1,2,-0.33
Cc1ccccc1-n1c(=O)cc(N2CCc3ccccc32)[nH]c1=O,2,-0.41
O=C(Cc1n[nH]c2c1CCCC2)NC[C@H]1CCCC2(CCC2)O1,-6,1.09
Nc1cc(Br)c(OC(F)(F)F)cc1N,-7,0.9
CNC(=O)CCCN(C)Cc1ccc(Cl)cc1F,0,0.04
CCc1nc(NCCN2CCCC2)c2cc(Cl)cc(Cl)c2n1,-3,0.52
COc1ccc(-c2cnc3ncnn3c2N2CCCN(S(=O)(=O)c3cccc(Cl)c3C)CC2)cc1,-7,0.73
CS(=O)(=O)Nc1ccc2c(c1)NC(=O)C[C@@H]2c1cnc2ccccc2n1,-1,0.12
CC(C)(C)NS(=O)(=O)Cc1cccc(N)c1,-11,1.62
Cc1cc(C(=O)N2CCCCC[C@H]2c2nnc(C)o2)c(C)o1,-8,1.6
Cc1cc(NC(=O)CN2CCCC[C@H]2c2nc(C)cs2)on1,-4,0.75
CCCC1(CCC)CCCN1C(=O)c1ccc(=O)n(CC)n1,-8,1.04

Structure (SMILES),% Inhibition [%],Z score
CCc1cnc(C)nc1N1CCC(NCCCc2nc(C)cs2)CC1,-4,0.77
CC(=O)N1CCC[C@H](NS(=O)(=O)c2ccnn2C(C)C)C1,0,-0.02
CCN1CC(=O)N[C@H]2CN(C(=O)c3cccn4cc(C)nc34)CC[C@@H]2OCc2cccc(c2)Oc2cc(OC(C)C)cc(c2)C1=O,-1,0.17
CC(CC1OCC(C[N+]2(Cc3ccccc3)CCCCC2)O1)CC(C)(C)C (stereo not drawn),60,-5.21
CCc1ccc2nc(C)cc(C(=O)N3CCc4cc(C(N)=O)n(C)c4C3)c2c1,-11,1.92
Cc1ccsc1-c1nnc(CC(=O)NCc2ccccc2)o1,-17,1.66
O=S(=O)(c1cccc(F)c1)N1C[C@H]2CNC[C@@H](C1)O2,-8,1.07
Cc1ccc2c(n1)OCCN2C(=O)CCn1cccn1,-14,1.64
Cn1cc(C(=O)N2CCOC(C)(C)C2)c(=O)[nH]c1=O,-1,0.16
CC1(C)CC(=O)c2cn(-c3ccccc3)c(=O)c(C(=O)N3CCCCC3)c2C1,11,-1.26
COC[C@H]1CCN(Cc2ccc3c(c2)nnn3C)C1,-3,0.62
CC(C)n1cc2c(C(F)F)cc(=O)n(CCC(=O)Nc3ncc(Cl)cc3Cl)c2n1,31,-3.56
COc1ccc2c(c1)Oc1cc(C)ccc1N=C2N1CCCN(S(=O)(=O)c2cccc(Cl)c2)CC1,1,-0.07
Nc1nnnn1CC(=O)N1CCC[C@H]1c1nccs1,5,-0.48
COc1ccccc1Cn1c(CN2C(=O)c3ccccc3C2=O)nc2cccnc21,-10,1.94
CCC1(O)CN(C(=O)C(C)(C)C(F)F)C1,-17,1.98
CN(C)C(=O)CN1CC[C@H](NC(=O)c2c[nH]nc2-c2ccccc2)[C@@H](O)C1,-1,0.16
Cc1nc2cc(OCc3nc(C(=O)N(C)C[C@H](C)O)co3)ccc2s1,-6,1.15
COc1cc(CN2CC3(C)CC2CC(C)(C)C3)cc(OC)c1 (stereo not drawn),-6,1.14
C[C@@H](CC(F)(F)F)N1CCCNC(=O)C1,-1,0.11
O=C(Cc1cccc(C(F)(F)F)n1)N1CC2(C1)CS(=O)(=O)C2,-8,1.13

Structure (SMILES),% Inhibition [%],Z score
CC(C)CCOc1ccc(NC(=O)NC2CCC(C)S(=O)(=O)C2)nn1 (stereo not drawn),-8,1.34
Cc1cc(NC(=O)[C@H](C)N(C)Cc2nccn2C(F)F)on1,-8,1.53
CCCc1cnc(C)nc1N1C[C@@H]2c3ccc(OC)cc3OC[C@]2(CO)C1,-13,1.79
Cc1ccc(NC(=O)CN(C)S(=O)(=O)c2c[nH]c(C(=O)N3CCCCCC3)c2)c(Cl)c1,8,-0.83
CS(=O)(=O)NCCn1nc(-c2cnccn2)cc1C1CC1,32,-0.66
C=C(C)CN=C(N)Nc1ccccc1COC,-14,1.43
Cc1ccc([C@@H](NC(=O)CN2CCOCC2)c2cccnc2)c(C)c1,3,-0.54
CC(C)(C)c1ccc(OCCNC(=O)CN2CCC(=O)NC2=O)cc1,-4,0.86
c1cn(C2CCCN(CCOC3CCCCO3)C2)nn1 (stereo not drawn),-4,0.62
CNc1ncc(CN(C)C(=O)CCc2cc(C)cc(C)c2)cn1,-1,0.11
CN(CCn1cccn1)Cc1ncc(Br)cc1O,-1,0.1
O=C(NC[C@H]1CCS(=O)(=O)C1)c1ccc(Cl)cc1Cl,-6,0.91
CCC(C)n1ncc(NC(=O)N2CCC3C(CCCN3C)C2)c1C1CC1 (stereo not drawn),10,-1.11
O=C(COC(=O)c1ccc(Cl)cc1)Nc1ccc2c(c1)CCC2,-8,1.44
CC1OCCCC1C(=O)N(CCC(=O)O)Cc1ccccc1 (stereo not drawn),-22,2.38
CC1(C)CCCN(C(=O)c2ccc3ncccc3c2)[C@@H]1C#N,-13,1.27
Cc1nnc(CN(C)C[C@@H]2C[C@H](F)CN2Cc2cnn(C)c2)s1,-4,0.78
COc1cccc(-c2n[nH]c3c2CN(c2cc(C(N)=O)ccn2)CC3)c1,4,-0.76
Cc1ccc(C)c(N2CCN(C(=O)c3c(-c4ccccc4)nnc4ccc(C)cc34)CC2)c1,-12,1.65
O=C(NS(=O)(=O)[C@H]1CCCOC1)c1ccc(Br)o1,9,-1.12
c1coc(-c2nnc([C@H]3CCN(Cc4cc5ccccc5o4)C3)o2)c1,-3,0.43

Structure (SMILES),% Inhibition [%],Z score
Cc1csc(C(=O)NCC2(c3ccsc3)CCOCC2)c1,12,-1.82
CN(C)C(=O)N(CCNC(=O)c1ccsc1)C1CCOCC1,-8,1.27
COc1ccc(-n2ccnc2-c2cc3ccccc3[nH]c2=O)c(OC)n1,1,-0.13
CCC[C@@H]1C[C@H]1C(=O)NCc1oc(C(C)C)nc1C,-7,0.98
CCN1C[C@@H](CN(C)C(=O)c2cc(C(F)F)n[nH]2)CC1=O,2,-0.25
CCCCN(C)S(=O)(=O)NCc1ccc2c(c1)nc(C)n2C1CC1,-6,1.04
COc1ccc(CNC(=O)C2CCN(c3ncnc4oc(C)c(C)c34)CC2)c(OC)c1,-10,1.03
Cc1nc(N2C[C@H](NC(=O)CCC(F)(F)F)[C@@H](C(C)C)C2)no1,-8,1.55
COc1ccc(C(NC(=O)c2cncn2C)[C@H]2C[C@@H](O)C2)cc1F (stereo partly drawn),12,-1.93
CCCN(C(=O)c1ccncc1)[C@H]1CC(=O)N(C)C1=O,-12,2.22
CC(C)(C)c1ccc(-c2cc(C(=O)N[C@H]3CCC[C@@H]3OCc3ccccc3)no2)cc1,-22,1.9
COc1cccc2c1CCCCN2C(=O)[C@H](C)c1cncnc1,-8,1
CN(C)CCN(C(=O)C1CC2CCC1C2)C1CCCCC1 (stereo not drawn),-8,1.56
CCc1nc(-c2cc(-c3ccccn3)n[nH]2)n(Cc2ccc3c(c2)OCO3)n1,-2,0.34
COc1ccc(-n2cc([C@H](C)NC(=O)c3n[nH]c(N)c3Cl)cn2)cc1,-8,0.79
Cc1cnn([C@H]2CCN(C(=O)NCc3nn(C)c4ccccc34)C2)c1,-44,5.16
O/N=C1/N[C@@H](/C=C/c2ccccc2)Nc2ccccc21,-10,1.99
Cc1ccc(S(=O)(=O)NC[C@H]2CCCO2)cc1C(=O)NC1CCCCC1,0,0.05
CN(C(=O)Nc1nc(C2CCOCC2)cs1)C1CCCC1C(C)(C)C (stereo not drawn),0,0.05
Cc1ccc(N2CCCN(Cc3cccc(OC(F)(F)F)c3)C2=O)c(NC(=O)NCc2ccccc2)c1,-8,0.78
Cc1cccc(CN2CCC[C@H](c3nnc(CN4CCCC4)n3C)C2)n1,-6,1.07
